Laboratory results: the supplement of paper PMC8948288
The sequences are guide strands of siRNAs; only the seed at positions 2 to 7 varies.

What was measured:
GL261 = test: cell viability relative to siNT1 (ATP content); H4 human neuroglioma and GL261 mouse glioma; higher = less toxic; conditions: siRNA concentration 25 nM; 96 h; mouse
H4 = test: as above; conditions: siRNA concentration 10 nM; 96 h; human
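Further: cells reverse transfected with siRNA duplexes via lipid reagent, ATP read by luminescence, triplicate wells, values scaled to mean viability with non-targeting control siNT1.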

Sequence	cell viability (GL261) [%]	cell viability (H4) [%]
UUCUUGGACAUGUAAACCA	29.8	44.7
UUCUUGUACAUGUAAACCA	23.7	74.9
UUCUUUAACAUGUAAACCA	60.2	102
UUCUUUCACAUGUAAACCA	43.6	47.8
UUCUUUGACAUGUAAACCA	59.8	89.4
UUCUUUUACAUGUAAACCA	42.1	91.5
UUGAAAAACAUGUAAACCA	67.6	77.9
UUGAAACACAUGUAAACCA	62.5	86.4
UUGAAAGACAUGUAAACCA	49.7	104
UUGAAAUACAUGUAAACCA	59.2	66.4
UUGAACAACAUGUAAACCA	57	99.6
UUGAACCACAUGUAAACCA	46.8	48.8
UUGAACGACAUGUAAACCA	59	102
UUGAACUACAUGUAAACCA	50.4	59.7
UUGAAGAACAUGUAAACCA	60.8	98.8
UUGAAGCACAUGUAAACCA	21.9	46.9
UUGAAGGACAUGUAAACCA	45.7	53.9
UUGAAGUACAUGUAAACCA	35	62.2
UUGAAUAACAUGUAAACCA	55.3	105
UUGAAUCACAUGUAAACCA	64.3	66.5
UUGAAUGACAUGUAAACCA	71	87.3
UUGAAUUACAUGUAAACCA	57.1	78.2
UUGACAAACAUGUAAACCA	67.5	102

Sequence	cell viability (GL261) [%]	cell viability (H4) [%]
UUGACACACAUGUAAACCA	63.3	56.5
UUGACAGACAUGUAAACCA	50.5	65.5
UUGACAUACAUGUAAACCA	35.7	112
UUGACCAACAUGUAAACCA	51.5	80.6
UUGACCCACAUGUAAACCA	31.3	47.1
UUGACCGACAUGUAAACCA	48.2	71.1
UUGACCUACAUGUAAACCA	56.3	46.2
UUGACGAACAUGUAAACCA	56.7	109
UUGACGCACAUGUAAACCA	51.8	69
UUGACGGACAUGUAAACCA	45.4	81.1
UUGACGUACAUGUAAACCA	56.4	71.9
UUGACUAACAUGUAAACCA	73.7	106
UUGACUCACAUGUAAACCA	25.5	85.9
UUGACUGACAUGUAAACCA	55.3	95.7
UUGACUUACAUGUAAACCA	62	104
UUGAGAAACAUGUAAACCA	49.4	97
UUGAGACACAUGUAAACCA	44.7	65.3
UUGAGAGACAUGUAAACCA	56.9	88.6
UUGAGAUACAUGUAAACCA	19.8	81.4
UUGAGCAACAUGUAAACCA	48.8	79.7
UUGAGCCACAUGUAAACCA	35.9	51.2
UUGAGCGACAUGUAAACCA	71.8	80
UUGAGCUACAUGUAAACCA	23.6	41

Sequence	cell viability (GL261) [%]	cell viability (H4) [%]
UUGAGGAACAUGUAAACCA	49.2	83.4
UUGAGGCACAUGUAAACCA	15	22.1
UUGAGGGACAUGUAAACCA	30.2	44.1
UUGAGGUACAUGUAAACCA	33.6	41.1
UUGAGUAACAUGUAAACCA	58.5	81.9
UUGAGUCACAUGUAAACCA	28.3	79.9
UUGAGUGACAUGUAAACCA	58.6	86.3
UUGAGUUACAUGUAAACCA	53.8	88.5
UUGAUAAACAUGUAAACCA	62.2	88.2
UUGAUACACAUGUAAACCA	40.8	74.8
UUGAUAGACAUGUAAACCA	49	77.1
UUGAUAUACAUGUAAACCA	81.3	79
UUGAUCAACAUGUAAACCA	58	82.4
UUGAUCCACAUGUAAACCA	38.9	48.1
UUGAUCGACAUGUAAACCA	55.2	76.9
UUGAUCUACAUGUAAACCA	61.4	69.8
UUGAUGAACAUGUAAACCA	26.9	96
UUGAUGCACAUGUAAACCA	22.9	38.1
UUGAUGGACAUGUAAACCA	22.5	68.7
UUGAUGUACAUGUAAACCA	33	58.7
UUGAUUAACAUGUAAACCA	53.5	100
UUGAUUCACAUGUAAACCA	38.3	72.9
UUGAUUGACAUGUAAACCA	60.7	98.6

Sequence	cell viability (GL261) [%]	cell viability (H4) [%]
UUGAUUUACAUGUAAACCA	61.8	82.2
UUGCAAAACAUGUAAACCA	59	109
UUGCAACACAUGUAAACCA	21.6	34.2
UUGCAAGACAUGUAAACCA	54.3	116
UUGCAAUACAUGUAAACCA	53.8	63.3
UUGCACAACAUGUAAACCA	24.8	89.9
UUGCACCACAUGUAAACCA	39	41.1
UUGCACGACAUGUAAACCA	39.5	97.6
UUGCACUACAUGUAAACCA	20.3	70.7
UUGCAGAACAUGUAAACCA	30.6	59.1
UUGCAGCACAUGUAAACCA	12.2	47.6
UUGCAGGACAUGUAAACCA	35.6	10.9
UUGCAGUACAUGUAAACCA	21.6	53.3
UUGCAUAACAUGUAAACCA	62.1	93.1
UUGCAUCACAUGUAAACCA	32.1	55.6
UUGCAUGACAUGUAAACCA	32.1	60.2
UUGCAUUACAUGUAAACCA	56.1	81.1
UUGCCAAACAUGUAAACCA	46.2	61.3
UUGCCACACAUGUAAACCA	18.3	38.8
UUGCCAGACAUGUAAACCA	50.7	75.2
UUGCCAUACAUGUAAACCA	52.8	29.7
